Measured values: the antibiotic and cytotoxicity screens of Wong et al. (2023)
The other results are listed elsewhere or left out.

Tested on: HepG2
Test: cytotoxicity call (relative viability < 0.9)
Conditions: 10 µM

SMILES | cytotoxicity call
CC(C)C#Cc1cnc2c(c1)C(=O)N([C@@H](C)CO)C[C@@H](C)[C@H](CN(C)S(=O)(=O)c1cn(C)cn1)O2 | inactive
CCC(=O)C12CC3CC(CC(C3)C1)C2 | inactive
C[C@@H]1CCCCO[C@H](CN(C)S(=O)(=O)c2cn(C)cn2)[C@@H](C)CN([C@H](C)CO)C(=O)c2cc(NS(C)(=O)=O)ccc2O1 | inactive
N[C@H]1CC[C@H](CCn2cc(C3CCCCC3)nn2)O[C@@H]1CO | inactive
COc1ccc2c3c(n(c2c1)C)[C@H](CO)N(C[C@]13CN(C1)C(=O)C)C(=O)CN1CCOCC1 | inactive
C[C@@H]1CN([C@@H](C)CO)C(=O)c2cc(Br)cnc2O[C@H]1CN(C)Cc1cccc(C(=O)O)c1 | inactive
C[C@@H]1CCCCO[C@@H](CN(C)C(=O)c2ccccc2)[C@H](C)CN([C@@H](C)CO)C(=O)c2cc(NC(=O)C3CCCCC3)ccc2O1 | inactive
O/N=C1\CCCCc2c1[nH]c1ccc(C3CCCCC3)cc21 | inactive
C[C@@H]1CCCCO[C@@H](CN(C)C(=O)Nc2ccc(C(F)(F)F)cc2)[C@@H](C)CN([C@@H](C)CO)C(=O)c2cc(NC(=O)C3CCCCC3)ccc2O1 | inactive
CCNC(=O)C[C@@H]1CC[C@@H]2[C@H](COc3ccc(NS(=O)(=O)c4ccccc4C)cc3C(=O)N2C)O1 | inactive
CN1CCN(C(=O)C[C@H]2CC[C@H]3[C@@H](COC[C@@H](O)CN3Cc3ccc4c(c3)OCO4)O2)CC1 | inactive
COc1ccc(C(=O)Nc2ccc(CN3C(=O)[C@@]4(O[C@@H](CC(=O)N5Cc6ccccc6C[C@H]5CO)[C@H]([Si](C)(C)c5ccc(OC)cc5)[C@H]4C)c4ccccc43)cc2)cc1 | inactive
O=C(O)C1CN(C(=O)c2cnccn2)C1 | inactive
C[C@@H]1CCCCO[C@H](CN(C)Cc2ccc(C(F)(F)F)cc2)[C@@H](C)CN([C@@H](C)CO)C(=O)c2cc(N(C)C)ccc2O1 | inactive
C[C@H](CO)N1C[C@H](C)[C@H](CN(C)S(C)(=O)=O)Oc2ccc(NS(=O)(=O)c3ccc(Cl)cc3)cc2CC1=O | inactive
Cc1cc(C(=O)Nc2cccc3c2O[C@H](CN(C)Cc2ccccc2)[C@H](C)CN([C@H](C)CO)C3=O)n(C)n1 | inactive
Cc1cc(C(=O)O)n(C)n1 | inactive
C[C@H]1CN([C@@H](C)CO)C(=O)c2cc(NC(=O)Nc3ccc(F)cc3)ccc2O[C@H]1CN(C)S(=O)(=O)c1cn(C)cn1 | inactive
C[C@@H]1CN([C@H](C)CO)S(=O)(=O)c2ccc(Br)cc2O[C@@H]1CN(C)C(=O)NC1CCCC1 | inactive
COCC(=O)N1C[C@H](C)[C@H](OC)CN(C)C(=O)c2ccc(NC(=O)c3ccc(F)cc3)cc2OC[C@@H]1C | inactive

SMILES | cytotoxicity call
C[C@H]1CN([C@@H](C)CO)C(=O)Cc2cc(NS(C)(=O)=O)ccc2O[C@H]1CN(C)C | inactive
C[C@@H]1CN([C@H](C)CO)C(=O)c2cc(NS(=O)(=O)c3cccs3)ccc2O[C@@H]1CN(C)S(=O)(=O)c1cn(C)cn1 | inactive
O=C(C[C@@H]1CC[C@H]2[C@@H](COC[C@H](O)CN2C(=O)c2ccccc2F)O1)N1CCN(c2ccccc2)CC1 | inactive
O=C(C[C@@H]1C[C@@H]2c3cc(NC(=O)NC4CCCC4)ccc3O[C@@H]2[C@H](CO)O1)NCc1ccc(Oc2ccccc2)cc1 | inactive
C[C@@H]1CCCCO[C@H](CN(C)Cc2ccc(C(F)(F)F)cc2)[C@@H](C)CN([C@@H](C)CO)C(=O)c2cc(NC(=O)c3ccccc3)ccc2O1 | inactive
COc1ccc(CN(C)C[C@H]2Oc3ccc(NS(=O)(=O)c4cn(C)cn4)cc3C(=O)N([C@H](C)CO)C[C@@H]2C)cc1 | inactive
C[C@@H]1CN([C@@H](C)CO)S(=O)(=O)c2ccc(C#Cc3ccncc3)cc2O[C@@H]1CN(C)C(=O)C1CCC1 | inactive
C[C@@H]1CN([C@@H](C)CO)C(=O)Cc2cc(NC(=O)Cn3cnnn3)ccc2O[C@@H]1CN(C)S(=O)(=O)c1ccccc1 | inactive
COc1ccc(S(=O)(=O)Nc2ccc3c(c2)C(=O)N([C@@H](C)CO)C[C@@H](C)[C@@H](CN(C)Cc2ccc(C(=O)O)cc2)OCCCC[C@H](C)O3)cc1 | inactive
C[C@@H]1CCCCO[C@@H](CN(C)C(=O)c2ccccc2)[C@@H](C)CN([C@@H](C)CO)C(=O)c2cc(NC(=O)Nc3ccc4c(c3)OCO4)ccc2O1 | inactive
C[C@H]1CN([C@@H](C)CO)C(=O)c2cccc(NC(=O)c3nc4ccccc4s3)c2O[C@H]1CN(C)Cc1ccc(C(F)(F)F)cc1 | inactive
C[C@H](CO)N1C[C@H](C)[C@H](CN(C)Cc2ccc3c(c2)OCO3)Oc2ccc(NC(=O)Cn3cnnn3)cc2CC1=O | inactive
C[C@@H]1CN([C@H](C)CO)C(=O)c2cc(NC(=O)C3CC3)ccc2O[C@H]1CN(C)S(=O)(=O)c1ccccc1 | inactive
CC(C)NC(=O)N(C)C[C@@H]1OCCCC[C@H](C)Oc2ccc(NC(=O)C3CCCCC3)cc2C(=O)N([C@@H](C)CO)C[C@H]1C | inactive
COc1ccc(S(=O)(=O)N(C)C[C@@H]2Oc3ccc(NS(=O)(=O)c4ccc(F)cc4)cc3CC(=O)N([C@H](C)CO)C[C@@H]2C)cc1 | inactive
O=C1C=C2CC3(O)COc4c(ccc(O)c4O)C3=C2C=C1O (stereo not given) | inactive
O=C(C[C@@H]1C[C@H]2c3cc(NS(=O)(=O)c4ccc(F)cc4)ccc3O[C@H]2[C@H](CO)O1)NCc1cccc(F)c1 | inactive
CCNC(=O)C[C@H]1C=C[C@@H](NC(=O)C2CC2)[C@H](CO)O1 | inactive
C[C@H]1CN([C@@H](C)CO)C(=O)c2cc(C#CCc3ccccc3)cnc2O[C@@H]1CN(C)C(=O)Cc1cccnc1 | inactive
CC1CCC2(C(=O)O)CCC3(C)C(=CCC4C5(C)CC(O)C(O)C(C)(CO)C5C(O)CC43C)C2C1C (stereo not given) | inactive
